In the supplement of paper PMC12645437, “Orthogonal IMiD-Degron Pairs Induce Selective Protein Degradation in Cells” (ACS Chemical Biology, 2025):
The other results are listed elsewhere or left out.
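Also: jurkat cells carrying a lentiviral library of mutant zinc finger degrons fused to EGFP plus mCherry, mCherry+ cells FACS sorted, degron abundance counted by next-generation sequencing.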

The sequences below were run against no compound (DMSO) (assay: log2 fold change of degron read counts, EGFP-low vs EGFP+ sorted cells; higher = lower degron-EGFP level without compound (poor expression or instability)). Conditions: compound: DMSO control; 18 h.
For FDCDVCGAHFTQKGNLLRHIKL, the “log2 fold change of degron read counts” value was -1.48.
FTCPICGANFTQKGNLLRHIKL was tested, and the “log2 fold change of degron read counts” value was 0.123.
In the case of FECPICGARFTQKGNLLRHIKL, the “log2 fold change of degron read counts” value is reported as 0.496.
FHCEICGHHFTQKGNLLRHIKL was tested, and the “log2 fold change of degron read counts” value was -0.766.
FNCEQCGATFTQKGNLLRHIKL was tested, and the “log2 fold change of degron read counts” value was -1.37.
In the case of FMCEICGRSFTQKGNLLRHIKL, the “log2 fold change of degron read counts” value is reported as -1.35.
LDCPICGFWCTQKGNLLRHIKL was tested, and the “log2 fold change of degron read counts” value was 1.61.
With LYCEICGFFCTQKGNLLRHIKL the “log2 fold change of degron read counts” value was 1.63.
For FNCPQCGAIFTQKGNLLRHIKL, the “log2 fold change of degron read counts” value was -0.329.
For FVCPVCGANFTQKGNLLRHIKL, the “log2 fold change of degron read counts” value was -0.527.
With FKCDQCGAPFTQKGNLLRHIKL the “log2 fold change of degron read counts” value was -1.44.
FKCPICGRWFTQKGNLLRHIKL was tested, and the “log2 fold change of degron read counts” value was -0.0477.
FFCEVCGACFTQKGNLLRHIKL was tested, and the “log2 fold change of degron read counts” value was -1.24.
FNCPVCGAEFTQKGNLLRHIKL was tested, and the “log2 fold change of degron read counts” value was -0.735.
With FNCEICGAMFTQKGNLLRHIKL the “log2 fold change of degron read counts” value was -1.33.
FICNQCGHWFTQKGNLLRHIKL was tested, and the “log2 fold change of degron read counts” value was 0.259.
FMCPICGHIFTQKGNLLRHIKL was tested, and the “log2 fold change of degron read counts” value was 0.498.
For LNCNQCGFTCTQKGNLLRHIKL, the “log2 fold change of degron read counts” value was 0.0876.
With FLCEICGRFFTQKGNLLRHIKL the “log2 fold change of degron read counts” value was 0.117.
In the case of FLCNICGAWFTQKGNLLRHIKL, the “log2 fold change of degron read counts” value is reported as 0.502.
FICDVCGAGFTQKGNLLRHIKL was tested, and the “log2 fold change of degron read counts” value was -1.23.
FACNVCGAYFTQKGNLLRHIKL was tested, and the “log2 fold change of degron read counts” value was -0.061.
For FSCNQCGRVFTQKGNLLRHIKL, the “log2 fold change of degron read counts” value was 0.194.
For FGCDQCGAVFTQKGNLLRHIKL, the “log2 fold change of degron read counts” value was -1.
With FCCPQCGAGFTQKGNLLRHIKL the “log2 fold change of degron read counts” value was -0.821.
For FRCNVCGAMFTQKGNLLRHIKL, the “log2 fold change of degron read counts” value was -0.32.
FWCPICGAIFTQKGNLLRHIKL was tested, and the “log2 fold change of degron read counts” value was 1.41.
For FRCSVCGHQFTQKGNLLRHIKL, the “log2 fold change of degron read counts” value was 0.564.
With LTCPICGFKCTQKGNLLRHIKL the “log2 fold change of degron read counts” value was -0.0446.
With FHCNQCGAFFTQKGNLLRHIKL the “log2 fold change of degron read counts” value was -0.305.
With FHCPQCGADFTQKGNLLRHIKL the “log2 fold change of degron read counts” value was -2.37.
In the case of FQCNVCGAWFTQKGNLLRHIKL, the “log2 fold change of degron read counts” value is reported as -0.176.
